Test results: PubChem BioAssay AID504339 (National Center for Advancing Translational Sciences (NCATS), 2011)
Hit rate of the full screen: of about 390,000 compounds, about 17,000 (4.4%) were called active. The shares of active, inactive and inconclusive entries below differ from those in the screen. The call rests on the fitted dose curve; in most records, active means well fitted inhibition curve with a large enough effect; inconclusive means small, poorly fitted or top-dose-only effect; inactive means no such curve, though single readings can be large or run the other way. Potencies of inconclusive entries are doubtful fits and often do not repeat.

Target: Lysine-specific demethylase 4A (Homo sapiens) (UniProt O75164)
Sequence of UniProt O75164 (O75164 whole entry, looked up, the tested form may be a part): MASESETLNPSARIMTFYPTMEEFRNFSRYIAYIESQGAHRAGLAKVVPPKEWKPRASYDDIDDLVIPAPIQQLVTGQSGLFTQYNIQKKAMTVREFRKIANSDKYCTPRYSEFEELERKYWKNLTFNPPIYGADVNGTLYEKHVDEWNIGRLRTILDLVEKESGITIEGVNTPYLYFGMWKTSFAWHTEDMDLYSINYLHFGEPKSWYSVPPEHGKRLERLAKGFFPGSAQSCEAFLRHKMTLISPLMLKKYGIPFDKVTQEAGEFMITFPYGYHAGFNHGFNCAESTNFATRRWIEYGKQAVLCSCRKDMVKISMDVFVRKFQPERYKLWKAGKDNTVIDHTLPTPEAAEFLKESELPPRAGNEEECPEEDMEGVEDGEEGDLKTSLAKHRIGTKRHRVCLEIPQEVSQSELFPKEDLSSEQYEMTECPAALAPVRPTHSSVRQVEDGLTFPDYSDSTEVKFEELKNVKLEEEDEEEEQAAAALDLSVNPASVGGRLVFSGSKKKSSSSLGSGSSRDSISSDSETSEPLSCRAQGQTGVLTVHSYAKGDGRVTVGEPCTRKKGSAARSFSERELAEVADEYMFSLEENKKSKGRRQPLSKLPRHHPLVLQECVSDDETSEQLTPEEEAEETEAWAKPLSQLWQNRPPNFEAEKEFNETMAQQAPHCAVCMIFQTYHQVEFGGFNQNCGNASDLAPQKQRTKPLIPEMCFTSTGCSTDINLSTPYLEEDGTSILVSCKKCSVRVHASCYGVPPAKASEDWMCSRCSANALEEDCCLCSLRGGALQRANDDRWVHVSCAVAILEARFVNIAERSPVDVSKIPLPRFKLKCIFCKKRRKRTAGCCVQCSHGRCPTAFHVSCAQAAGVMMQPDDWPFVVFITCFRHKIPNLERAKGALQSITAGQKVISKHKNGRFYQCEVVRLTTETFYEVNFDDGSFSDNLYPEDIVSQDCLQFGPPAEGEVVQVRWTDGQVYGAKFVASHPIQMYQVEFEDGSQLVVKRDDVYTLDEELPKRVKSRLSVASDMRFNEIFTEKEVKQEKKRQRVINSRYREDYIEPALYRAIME
Test: qHTS Assay for Inhibitors of JMJD2A-Tudor Domain; further: nearly all actives have a fitted effect of over 50% in size
Settings: AlphaScreen JMJD2A-Tudor / H3K4me3 peptide binding; activity change, negative = inhibition: at 114 µM (top of the series)
On the % scale 0 is the no-effect control and ±100 the full control effect; potency means the concentration at half of the fitted maximal effect; tags describe the fitted curve by direction and shape.

For `CC1CCC(C(=O)c2c(O)c3ccccc3oc2=O)CC1` (stereo unspecified), which “activity change, negative = inhibition” value is on record?
Its value is inactive: -19.2%.

For `COC(=O)Nc1ccc(S(=O)(=O)NCc2ccccn2)cc1`, which Potency is on record?
The Potency was active: 5.62 µM.

Which Potency does the source give for `O=C(COc1ccc(Br)cc1CNCCc1ccccc1)NCc1ccccc1` here?
Its Potency is inconclusive: 22.4 µM [inhibitor, full curve].

With `Cn1nc(CC#N)c2c(=N)n(N)cnc21` as the compound, how does the Potency read?
Its Potency is active: 31.6 µM.

With `Oc1ccc(/C=N/Nc2ccccc2)cc1` as the compound, how does the Potency read?
The Potency was active: 22.4 µM.

How did the “activity change, negative = inhibition” value turn out when `COc1ccc(C2C(C(=O)O)CCC(=O)N2c2ccc(C)cc2)cc1OC` (stereo unspecified) was run?
The value was inactive: -2.07%.

With `Cc1ccc(C)c(OCC(O)CN2CCN(CCN3C(=O)c4cccc5cccc(c45)C3=O)CC2)c1` (stereo unspecified) as the compound, how does the Potency read?
Its Potency is inconclusive: 39.8 µM [inhibitor, single point].

`O=C(Nc1ccc2c(c1)OCCO2)NC1(C(F)(F)F)Oc2ccccc2O1` was tested. Which Potency did it give?
The Potency was inconclusive: 5.01 µM [inhibitor, full curve, poor fit].

For `CN1CCN(CCCNC(=O)c2ccc3c(c2)N(Cc2ccccc2)CCS3)CC1`, which Potency is on record?
The Potency was inconclusive: 56.2 µM [inhibitor, partial curve].

Which Potency does the source give for `Cc1ccc(-n2c(SCC(N)=O)nc3c(oc4ccccc43)c2=O)cc1` here?
The Potency was “inactive”.

`Cc1ccc2[nH]c(C(=O)O)c(NC(=O)CN3CCN(c4cccc(C)c4C)CC3)c2c1` was tested. Which Potency did it give?
The Potency was inconclusive: 79.4 µM [inhibitor, partial curve].

How did the Potency turn out when `COc1ccc(N=C(c2ccccc2)c2c(C)[nH]n(-c3ccccc3)c2=O)c(OC)c1` was run?
Its Potency is inconclusive: 7.08 µM [inhibitor, full curve].

Which Potency does the source give for `CCOC(=O)/C(=C\c1cccc(O)c1)c1nc2sc(C)c(C)c2c(=O)[nH]1` here?
Its Potency is active: 56.2 µM.

Which Potency does the source give for `CC(=O)c1cccc(NC(=O)c2ccc3c(c2)c(C)c(C)n3Cc2ccc(Cl)cc2)c1` here?
Its Potency is inconclusive: 35.5 µM [inhibitor, full curve, poor fit].

`O=c1cc(CSc2ccc(Cl)cc2)nc(-c2ccccn2)[nH]1` was tested. Which Potency did it give?
The Potency was active: 79.4 µM.

How did the Potency turn out when `COc1ccc(OCc2n(CC(=O)OC3CC(C)CCC3C(C)C)c3ccccc3[n+]2C)cc1` (stereo unspecified) was run?
Its Potency is inconclusive: 100 µM [inhibitor, single point].

Which “activity change, negative = inhibition” value does the source give for `CCN(CC)c1ccc(NC(=O)CN2C(=O)CSc3ncccc32)c(C)c1` here?
Its value is inactive: -31.7%.

With `C=CCOC(=O)C(C#N)c1nc2ccccc2nc1N1CCN(c2ccccc2OCC)CC1` (stereo unspecified) as the compound, how does the Potency read?
Its Potency is inconclusive: 28.2 µM [inhibitor, full curve].

Which “activity change, negative = inhibition” value does the source give for `Cc1cc(C)c(C)c(S(=O)(=O)N2CCC(C(=O)N3CCCCCCC3)CC2)c1C` here?
The value was inactive: -18.2%.

With `Cc1nn(CCc2nn[nH]n2)c2nc(-c3ccc(C4CCCCC4)cc3)cc(C(F)(F)F)c12` as the compound, how does the Potency read?
Its Potency is inconclusive: 79.4 µM [inhibitor, partial curve].

`CC(C)N1CCc2c(sc(NC(=S)NC(=O)c3ccccc3)c2C#N)C1` was tested. Which Potency did it give?
Its Potency is inconclusive: 14.1 µM [inhibitor, partial curve, poor fit].

Which “activity change, negative = inhibition” value does the source give for `CCOc1ccc(-c2noc(CCC(=O)NCCc3ccccc3)n2)cc1OC` here?
Its value is inactive: -2.88%.

With `CCN(CC)CCOC(=O)C(Cc1ccco1)Cc1cccc2ccccc12` (stereo unspecified) as the compound, how does the Potency read?
Its Potency is active: 12.6 µM.

With `CCOC(=O)Cc1nnc(NC(=O)c2cccc(OCC)c2)s1` as the compound, how does the Potency read?
The Potency was inconclusive: 3.55 µM [inhibitor, full curve, poor fit].

How did the Potency turn out when `Cc1cccc(NC(=O)CSc2nc3sc(C)cc3c(=O)n2C)c1` was run?
Its Potency is inconclusive: 15.8 µM [inhibitor, single point].

For `CCn1c(CCNC(=O)c2ccco2)nc2ccccc21`, which Potency is on record?
Its Potency is inconclusive: 25.1 µM [inhibitor, full curve].

With `COc1ccccc1N(/N=C1\Sc2ccccc2C1=O)C(C)=O` as the compound, how does the Potency read?
Its Potency is inconclusive: 56.2 µM [inhibitor, partial curve].

How did the Potency turn out when `CC1(C)N=C(c2ccccn2)C(C)(C)N1O` was run?
Its Potency is inconclusive: 56.2 µM [inhibitor, partial curve].

How did the Potency turn out when `Cc1cc(-c2ccccc2)nc2cc(C(=O)Nc3cc(C(F)(F)F)ccc3Cl)nn12` was run?
The Potency was inconclusive: 100 µM [inhibitor, single point].

For `Fc1ccc(-c2ccc(-c3nn4c(-c5ccco5)nnc4s3)o2)cc1`, which Potency is on record?
Its Potency is inconclusive: 100 µM [inhibitor, single point].

How did the Potency turn out when `COc1ccc(C(=O)OCC(=O)c2cc(C)n(CC3CCCO3)c2C)cc1[N+](=O)[O-]` (stereo unspecified) was run?
Its Potency is inconclusive: 56.2 µM [inhibitor, partial curve].

How did the “activity change, negative = inhibition” value turn out when `Cc1cccc(Nc2cc(C)nc3nc(Cc4ccc(Cl)cc4)nn23)c1` was run?
The value was inactive: -32.1%.

Which Potency does the source give for `O=C(NCCN1CCN(c2ccccc2)CC1)c1ccccc1F` here?
Its Potency is inconclusive: 25.1 µM [inhibitor, partial curve].

With `COc1ccc(/C=N/NC(=O)C2C(C=C(Cl)Cl)C2(C)C)c(OC)c1` (stereo unspecified) as the compound, how does the Potency read?
Its Potency is inconclusive: 63.1 µM [inhibitor, partial curve].

How did the Potency turn out when `CCCCNc1ccc2c(c1)C1CC2CCN1C(=O)OCc1ccccc1` (stereo unspecified) was run?
The Potency was active: 25.1 µM.

For `CC(C)(C)c1nnc(SCC(=O)Nc2ccc(N3CCCCC3)cc2)n1N`, which Potency is on record?
Its Potency is inconclusive: 63.1 µM [inhibitor, partial curve, poor fit].

With `COc1ccc(NC(=O)C(=O)c2cn(CC(=O)N3CCCC3)c3ccccc23)c(OC)c1` as the compound, how does the “activity change, negative = inhibition” value read?
Its value is inactive: -18.6%.

Which Potency does the source give for `CN(/N=C/c1ccc([N+](=O)[O-])o1)c1ccccc1` here?
The Potency was active: 31.6 µM.

`CC(=O)N/N=C/c1cc(C(C)C)cc(/C=N/NC(C)=O)c1O` was tested. Which “activity change, negative = inhibition” value did it give?
The value was inactive: -29.9%.

`Cc1cccc(C(=O)NCC(=O)OCc2cc(=O)n3nc(C)sc3n2)c1` was tested. Which “activity change, negative = inhibition” value did it give?
The value was inactive: -14.3%.

With `COc1ccccc1CNN` as the compound, how does the Potency read?
Its Potency is active: 39.8 µM.

`O=C(c1cn(-c2ccccc2)nc1-c1ccncc1)n1nnc2ccccc21` was tested. Which Potency did it give?
Its Potency is inconclusive: 79.4 µM [inhibitor, single point].

Which Potency does the source give for `COc1ccc(C2=[N+]([O-])C(C)(C)C(c3ccccc3)=N2)cc1` here?
The Potency was inconclusive: 35.5 µM [inhibitor, partial curve].

Which Potency does the source give for `CCN(CC)CCNC(=O)c1ccc2c(=O)n3nc(Nc4cccc(Cl)c4C)sc3nc2c1` here?
Its Potency is inconclusive: 50.1 µM [inhibitor, partial curve].

With `C=CCNc1nc(Cl)nc(Nc2cc(Cl)ccc2OC)n1` as the compound, how does the Potency read?
Its Potency is inconclusive: 22.4 µM [inhibitor, partial curve].

For `CCCn1c(C(C)Nc2nc(-c3ccc(C)cc3)cs2)nc2ccccc21` (stereo unspecified), which Potency is on record?
Its Potency is inconclusive: 28.2 µM [inhibitor, partial curve].
